This is one part of the list. The energies were worked out here from pooled read counts, against the library average; single values are noisy.

The target of the assay is T1, Pho4 (S. cerevisiae) (UniProt P07270).
T1 sequence: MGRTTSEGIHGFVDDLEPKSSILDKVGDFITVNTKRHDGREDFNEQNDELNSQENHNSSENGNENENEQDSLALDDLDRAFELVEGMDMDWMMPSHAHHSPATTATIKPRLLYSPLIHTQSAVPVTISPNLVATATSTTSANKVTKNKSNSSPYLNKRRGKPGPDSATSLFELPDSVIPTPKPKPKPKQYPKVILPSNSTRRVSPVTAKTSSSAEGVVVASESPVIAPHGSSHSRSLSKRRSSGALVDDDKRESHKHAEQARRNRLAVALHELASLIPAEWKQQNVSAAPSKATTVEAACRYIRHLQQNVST
Nature of the assay: relative binding free energy (BET-seq); higher = weaker binding. Particulars: reference: library average.
With TAATTCACGTGCTGGA, the “relative binding free energy” value turned out to be 0.28 kcal/mol.

As for TTGATCACGTGTTCGA, the “relative binding free energy” value was 0.12 kcal/mol.

Turning to TGAGGCACGTGAAGAA, the “relative binding free energy” value stood at 0.19 kcal/mol.

Consider AGCGGCACGTGGTAAG, for which the “relative binding free energy” value was -0.09 kcal/mol.

Turning to AGACCCACGTGGGGTG, the “relative binding free energy” value was -0.21 kcal/mol.

On to GAATGCACGTGAGTTA, for which the “relative binding free energy” value came out at 0.28 kcal/mol.

Take TTGGTCACGTGTGAGT: the “relative binding free energy” value came to 0.23 kcal/mol.

ATGTTCACGTGTGAGG: the “relative binding free energy” value is 0.31 kcal/mol.

As to TTTAACACGTGAGGGC, the “relative binding free energy” value was 0.19 kcal/mol.

For TTAAACACGTGCTTGG, the “relative binding free energy” value is -0.05 kcal/mol.

Regarding CCGGGCACGTGTAGGG, the “relative binding free energy” value was -0.14 kcal/mol.

Take GGTTGCACGTGGAGGC: the “relative binding free energy” value was found to be 0.09 kcal/mol.

For TACGACACGTGGTGTG, the “relative binding free energy” value is -0.1 kcal/mol.

Consider GGGCGCACGTGATGAA, for which the “relative binding free energy” value turned out to be 0.22 kcal/mol.

On to GTGCACACGTGGTTGC, for which the “relative binding free energy” value was determined as 0.06 kcal/mol.

For the sequence AGGGTCACGTGTCGAG, the “relative binding free energy” value turned out to be 0.14 kcal/mol.

Turning to TTTTACACGTGCGTAA, the “relative binding free energy” value worked out at 0.07 kcal/mol.

Regarding ATGTACACGTGAGTTC, the “relative binding free energy” value came out at 0.29 kcal/mol.

CGATGCACGTGTAGCG: the “relative binding free energy” value was determined as 0.07 kcal/mol.

Turning to GTGGACACGTGTTTGG, the “relative binding free energy” value is -0.03 kcal/mol.

On to CTGGACACGTGTGATG, for which the “relative binding free energy” value was found to be 0.12 kcal/mol.

Consider GGGGTCACGTGACGGG, for which the “relative binding free energy” value was 0.25 kcal/mol.

In the case of AGGGTCACGTGTGATA, the “relative binding free energy” value was 0.22 kcal/mol.

On to GTTCTCACGTGCGTTG, for which the “relative binding free energy” value was found to be 0.2 kcal/mol.

On to ATTCACACGTGGTTAT, for which the “relative binding free energy” value came to 0.06 kcal/mol.

Consider GTATGCACGTGAGCGG, for which the “relative binding free energy” value stood at 0.16 kcal/mol.

For AATTGCACGTGTGGTA, the “relative binding free energy” value was found to be 0.05 kcal/mol.

With ATTTTCACGTGATGCA, the “relative binding free energy” value was found to be 0.25 kcal/mol.

On to TAGGGCACGTGTCGTT, for which the “relative binding free energy” value is -0.12 kcal/mol.

Take GTCGGCACGTGATAGG: the “relative binding free energy” value was -0.04 kcal/mol.

Regarding AGGTTCACGTGTAAAT, the “relative binding free energy” value was determined as 0.38 kcal/mol.

Consider TCTTGCACGTGGTACT, for which the “relative binding free energy” value was -0.03 kcal/mol.

For the sequence TGAGTCACGTGGTAAC, the “relative binding free energy” value came to 0.21 kcal/mol.

As for TCAGGCACGTGGGAAT, the “relative binding free energy” value is 0 kcal/mol.

In the case of AGTGGCACGTGTAGGG, the “relative binding free energy” value is -0.07 kcal/mol.

Turning to GGGGACACGTGGGAAC, the “relative binding free energy” value came to 0.06 kcal/mol.

For AGTAGCACGTGTCGGT, the “relative binding free energy” value is -0.02 kcal/mol.

Turning to CAATGCACGTGGGGTC, the “relative binding free energy” value is -0.12 kcal/mol.

As for TTCGGCACGTGGGTTG, the “relative binding free energy” value is -0.16 kcal/mol.

AGGGGCACGTGTGATG: the “relative binding free energy” value came to 0.01 kcal/mol.

On to TTTAGCACGTGAGATA, for which the “relative binding free energy” value is 0.27 kcal/mol.

With GTTCACACGTGGGGCT, the “relative binding free energy” value came out at 0.04 kcal/mol.

Turning to ATAGGCACGTGGTTAG, the “relative binding free energy” value is -0.25 kcal/mol.

Regarding ATATCCACGTGGGGAG, the “relative binding free energy” value is -0.03 kcal/mol.

Take TGAAACACGTGCGGGG: the “relative binding free energy” value was -0.05 kcal/mol.

Take GGTTTCACGTGCGCGA: the “relative binding free energy” value worked out at 0.33 kcal/mol.

For the sequence GGTTGCACGTGACGCG, the “relative binding free energy” value came to 0.07 kcal/mol.

Consider GTTAACACGTGGAGGT, for which the “relative binding free energy” value was 0.11 kcal/mol.

Consider GTTAACACGTGAGTGC, for which the “relative binding free energy” value was found to be 0.29 kcal/mol.

Regarding TAGTGCACGTGGTTCG, the “relative binding free energy” value is -0.01 kcal/mol.

Take TGTCGCACGTGGATAG: the “relative binding free energy” value is -0.07 kcal/mol.

Regarding ATTATCACGTGATGAA, the “relative binding free energy” value worked out at 0.32 kcal/mol.

On to TAGTGCACGTGTAGGC, for which the “relative binding free energy” value was -0.02 kcal/mol.

Consider GTTCACACGTGGTGTA, for which the “relative binding free energy” value amounted to 0.06 kcal/mol.

GCGGGCACGTGCGTCG: the “relative binding free energy” value is -0.06 kcal/mol.

Regarding GGTATCACGTGTGGTG, the “relative binding free energy” value is 0.2 kcal/mol.

With AGGGTCACGTGATTAT, the “relative binding free energy” value amounted to 0.31 kcal/mol.

Turning to GGTAGCACGTGGTCGA, the “relative binding free energy” value was -0.28 kcal/mol.

As to GTGAGCACGTGGTCGC, the “relative binding free energy” value was -0.16 kcal/mol.

Turning to CCGTACACGTGGGGGG, the “relative binding free energy” value is -0.21 kcal/mol.

For the sequence ATAAGCACGTGTAGTT, the “relative binding free energy” value was -0.16 kcal/mol.

As for GTAGGCACGTGTAAGC, the “relative binding free energy” value was 0.04 kcal/mol.

For the sequence GTTCACACGTGTGGGG, the “relative binding free energy” value was 0.14 kcal/mol.

In the case of AGGTACACGTGGGAGC, the “relative binding free energy” value is -0.12 kcal/mol.

For TTGGGCACGTGCTGTT, the “relative binding free energy” value was -0.12 kcal/mol.

In the case of TGAAACACGTGTGGTC, the “relative binding free energy” value turned out to be 0.06 kcal/mol.

Turning to TGGGTCACGTGGTAGG, the “relative binding free energy” value turned out to be 0.12 kcal/mol.

As to AGTTCCACGTGTCGGT, the “relative binding free energy” value was 0.04 kcal/mol.

Regarding GAGGGCACGTGAGTTG, the “relative binding free energy” value was 0.2 kcal/mol.

CACGGCACGTGAGTGG: the “relative binding free energy” value stood at 0.13 kcal/mol.

On to TGACGCACGTGGAGTG, for which the “relative binding free energy” value is -0.23 kcal/mol.

Turning to GGCTGCACGTGGGTCT, the “relative binding free energy” value is -0.04 kcal/mol.

For TTAGTCACGTGTAAAT, the “relative binding free energy” value was 0.23 kcal/mol.

(Values after the BET-seq Pho4 binding data (Le et al. 2018).)
